The values that follow come from publication PMC12820563.

Some of the results follow. The list includes weakly bound sequences.

The target of the assay is T1, MBP-FoxP3dN (UniProt Q99JB6).
T1 sequence: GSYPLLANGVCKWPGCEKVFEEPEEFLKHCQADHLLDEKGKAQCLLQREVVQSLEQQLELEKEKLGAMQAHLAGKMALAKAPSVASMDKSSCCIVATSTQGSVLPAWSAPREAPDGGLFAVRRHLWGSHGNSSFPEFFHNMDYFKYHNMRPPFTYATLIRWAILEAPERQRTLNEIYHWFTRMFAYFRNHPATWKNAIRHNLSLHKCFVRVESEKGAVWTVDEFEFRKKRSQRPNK
The experiment in a line: PD-seq (MBP pull-down with sequencing). As to conditions: 20 mM Tris-HCl pH 7.5, 100 mM NaCl, 1.5 mM MgCl2, 0.4 uM protein, 0.1 uM dsDNA library, 30 min, room temperature, amylose pull-down; high values mean tight binding; double strand, one strand shown.
“GATGATTGTTCTCCCAGCTGATGAATTGAGCAAATCGAGTAAACAAATTTTCCTAATCTTTCTGTTCAAGCGCCATCTAC”: the binding signal (RPM ratio (pull-down/input)) turned out to be 0.535.
Consider “GATGATTGTTCTCCCAGCTGATGAATTCGGGTTTTCGAGTAAACAAATTTTCCTAATCTTTCTGTTCAAGCGCCATCTAC”, for which the binding signal (RPM ratio (pull-down/input)) is 0.554.
Under “GATGATTGTTCTCCCAGCTGATGAATTGATGGCTTCGAGTAAACAAATTTTCCTAATCTTTCTGTTCAAGCGCCATCTAC” stands 0.598; under “GATGATTGTTCTCCCAGCTGATGAATTGGGGGAGTCGAGTAAACAAATTTTCCTAATCTTTCTGTTCAAGCGCCATCTAC”, 0.355.
Under “GATGATTGTTCTCCCAGCTGATGAATTGCTATCATCGAGTAAACAAATTTTCCTAATCTTTCTGTTCAAGCGCCATCTAC” stands 1.18; under “GATGATTGTTCTCCCAGCTGATGAATTACACATGTCGAGTAAACAAATTTTCCTAATCTTTCTGTTCAAGCGCCATCTAC”, 0.677; under “GATGATTGTTCTCCCAGCTGATGAATTCGTAGGATCGAGTAAACAAATTTTCCTAATCTTTCTGTTCAAGCGCCATCTAC”, 0.344.
In the case of “GATGATTGTTCTCCCAGCTGATGAATTGATACTTTCGAGTAAACAAATTTTCCTAATCTTTCTGTTCAAGCGCCATCTAC” it was 0.809; in that of “GATGATTGTTCTCCCAGCTGATGAATTGTAGTCGTCGAGTAAACAAATTTTCCTAATCTTTCTGTTCAAGCGCCATCTAC”, 0.76; in that of “GATGATTGTTCTCCCAGCTGATGAATTTCAAAAGTCGAGTAAACAAATTTTCCTAATCTTTCTGTTCAAGCGCCATCTAC”, 0.161.
On to “GATGATTGTTCTCCCAGCTGATGAATTCTTGCAGTCGAGTAAACAAATTTTCCTAATCTTTCTGTTCAAGCGCCATCTAC”, for which the binding signal (RPM ratio (pull-down/input)) was determined as 0.519.
On to “GATGATTGTTCTCCCAGCTGATGAATTGTACTATTCGAGTAAACAAATTTTCCTAATCTTTCTGTTCAAGCGCCATCTAC”, for which the binding signal (RPM ratio (pull-down/input)) came out at 0.669.
Under “GATGATTGTTCTCCCAGCTGATGAATTCTCTATTTCGAGTAAACAAATTTTCCTAATCTTTCTGTTCAAGCGCCATCTAC” stands 0.3.
In the case of “GATGATTGTTCTCCCAGCTGATGAATTGTCGCAGTCGAGTAAACAAATTTTCCTAATCTTTCTGTTCAAGCGCCATCTAC” it was 0.66; in that of “GATGATTGTTCTCCCAGCTGATGAATTGAGAATGTCGAGTAAACAAATTTTCCTAATCTTTCTGTTCAAGCGCCATCTAC”, 0.563; in that of “GATGATTGTTCTCCCAGCTGATGAATTTGATTTATCGAGTAAACAAATTTTCCTAATCTTTCTGTTCAAGCGCCATCTAC”, 2.99.
In the case of “GATGATTGTTCTCCCAGCTGATGAATTGGGCCAGTCGAGTAAACAAATTTTCCTAATCTTTCTGTTCAAGCGCCATCTAC”, the binding signal (RPM ratio (pull-down/input)) turned out to be 1.05.
Take “GATGATTGTTCTCCCAGCTGATGAATTCCGGCGTTCGAGTAAACAAATTTTCCTAATCTTTCTGTTCAAGCGCCATCTAC”: the binding signal (RPM ratio (pull-down/input)) came to 1.07.
In the case of “GATGATTGTTCTCCCAGCTGATGAATTTTACAACTCGAGTAAACAAATTTTCCTAATCTTTCTGTTCAAGCGCCATCTAC” it was 0.327; in that of “GATGATTGTTCTCCCAGCTGATGAATTCCAGACATCGAGTAAACAAATTTTCCTAATCTTTCTGTTCAAGCGCCATCTAC”, 0.3.
On to “GATGATTGTTCTCCCAGCTGATGAATTCCTTAGATCGAGTAAACAAATTTTCCTAATCTTTCTGTTCAAGCGCCATCTAC”, for which the binding signal (RPM ratio (pull-down/input)) turned out to be 0.189.
On to “GATGATTGTTCTCCCAGCTGATGAATTTCTCTGTTCGAGTAAACAAATTTTCCTAATCTTTCTGTTCAAGCGCCATCTAC”, for which the binding signal (RPM ratio (pull-down/input)) worked out at 0.339.
Take “GATGATTGTTCTCCCAGCTGATGAATTCCTTCTTTCGAGTAAACAAATTTTCCTAATCTTTCTGTTCAAGCGCCATCTAC”: the binding signal (RPM ratio (pull-down/input)) was 0.237.
Under “GATGATTGTTCTCCCAGCTGATGAATTCGGTTCATCGAGTAAACAAATTTTCCTAATCTTTCTGTTCAAGCGCCATCTAC” stands 0.682; under “GATGATTGTTCTCCCAGCTGATGAATTTGTTCATTCGAGTAAACAAATTTTCCTAATCTTTCTGTTCAAGCGCCATCTAC”, 2.23; under “GATGATTGTTCTCCCAGCTGATGAATTGGCACTGTCGAGTAAACAAATTTTCCTAATCTTTCTGTTCAAGCGCCATCTAC”, 0.397.
In the case of “GATGATTGTTCTCCCAGCTGATGAATTTTATCACTCGAGTAAACAAATTTTCCTAATCTTTCTGTTCAAGCGCCATCTAC”, the binding signal (RPM ratio (pull-down/input)) turned out to be 1.19.
Under “GATGATTGTTCTCCCAGCTGATGAATTGCCTTGATCGAGTAAACAAATTTTCCTAATCTTTCTGTTCAAGCGCCATCTAC” stands 0.523; under “GATGATTGTTCTCCCAGCTGATGAATTCTTTACCTCGAGTAAACAAATTTTCCTAATCTTTCTGTTCAAGCGCCATCTAC”, 0.325.
With “GATGATTGTTCTCCCAGCTGATGAATTGAGTTTTTCGAGTAAACAAATTTTCCTAATCTTTCTGTTCAAGCGCCATCTAC”, the binding signal (RPM ratio (pull-down/input)) turned out to be 1.67.
For the sequence “GATGATTGTTCTCCCAGCTGATGAATTTGATATGTCGAGTAAACAAATTTTCCTAATCTTTCTGTTCAAGCGCCATCTAC”, the binding signal (RPM ratio (pull-down/input)) turned out to be 4.08.
Under “GATGATTGTTCTCCCAGCTGATGAATTGCACGGCTCGAGTAAACAAATTTTCCTAATCTTTCTGTTCAAGCGCCATCTAC” stands 0.535.
